Data from the supplement of paper PMC4466236.
Whole data set: some 33,000 sequences, median “E-score (dimensionless, -0.5 to 0.5)” near -0.058, cut for the highest 2% near 0.35. The list shows a part of the results.

system: MvaT; assay: PBM 8-mer E-score (mean of HK and ME arrays) (E-score (dimensionless, -0.5 to 0.5)); higher = stronger relative binding preference; most listed sequences are background and not binding sites
Summary of the method: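 Full-length P. aeruginosa MvaT, with glutathione S-transferase fused to its N-terminus (cloned into pTH6838 by isothermal assembly), was tested by protein binding microarray using a previously described protocol. Two universal double-stranded 60-mer arrays (ME and HK) were used, each with a constant 25-mer primer region and a variable 35-mer region covering all 8-mers. The rank-based 8-mer E-score (-0.5 to 0.5) is the mean of the two arrays, parsed with a custom Python script.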

Sequence | PBM 8-mer E-score
CACGCGCA | -0.122
AATAGCTG | 0.095
GGTGGGAA | -0.0414
CCTCCGCC | -0.388
ATTTCAAA | 0.205
ACCCTCAA | -0.0731
GGGACCCA | -0.225
AATTTCCG | 0.128
ATATCAGG | 0.146
ATCCTTGA | 0.00085
CGAGATGC | -0.222
CCTCCCAG | -0.224
CACAACGC | -0.146
AGGCCGTG | -0.229
AAGTAATT | 0.392
ATTATTTC | 0.352
AGCATACA | 0.0721
GGTAGCAC | -0.162
GTTTCGGA | 0.115
GAATGCGA | 0.0642
CTATCCAG | -0.0225
AGTAGCTA | -0.0204
GAGAGAGC | -0.264
CGGCCGAA | -0.114
CGGTGGAG | -0.116

Sequence | PBM 8-mer E-score
CTCAAGCC | -0.196
GGGATCAA | -0.0222
GACGGACA | -0.185
AGCCTTAT | 0.135
ATGACGTC | -0.166
AATTGATG | 0.136
AGTTCATG | 0.108
CAATCAGC | -0.0173
AACAGGTT | -0.0797
CATGCGCC | -0.22
CCCAGCGC | -0.248
AATTGCAA | 0.179
CGTCATGC | -0.161
ATCAATGG | -0.096
CCGATAGG | -0.233
AACTGAGC | -0.0188
AGACGTGA | -0.0817
AGACATGG | -0.246
GTTTGTGA | 0.198
AGAATATC | 0.195
ACGAACGA | -0.115
AGTTGATC | 0.0552
ACTGCCAA | -0.239
AGGAGAAT | 0.0497
AACCCCTG | -0.251

Sequence | PBM 8-mer E-score
TTCGCAAA | 0.0626
GCAACGAA | -0.117
ATCTAAAC | 0.222
AAGGTCTC | -0.208
AGATTGTA | 0.156
AAAAAGCC | -0.0384
TATCTAAA | 0.309
GGTTTCGA | -0.225
ATGGGGAG | -0.207
GCGCTCTA | -0.106
TAACGCGA | 0.0409
CCGGTAAG | -0.0453
CTGTACAA | -0.0165
TACGGAGA | 0.0386
TGACGAAA | 0.147
GATCGCGA | -0.0811
TCAGATGA | 0.0376
CGTAAGCC | -0.205
GTAGGTGA | -0.0483
CGATGGCC | -0.224
CTCGACTA | -0.0223
AGGGGCCA | -0.294
AGTAATAG | 0.213
GCAGTACC | -0.119
CAGGGCAC | -0.218

Sequence | PBM 8-mer E-score
AACTCAAA | 0.167
AAGCGACG | -0.11
ATCTGTAG | 0.0781
TACACGGA | -0.0435
GCCACAGC | -0.247
ATATAAAG | 0.382
GGCGCATA | 0.0174
TGCATCAA | -0.0413
ATCATCCA | 0.0438
TGGCCTAA | -0.073
AACCGTCT | -0.123
CAAGACCG | -0.225
ACTGCCTC | -0.244
CATGAGAC | -0.0583
CTCTGAAG | -0.191
AAAGCCAC | -0.161
AGGCCCGC | -0.303
GTCAAAAC | 0.0997
GATAGTAA | 0.284
TATGTACA | 0.327
CACATCGC | -0.184
AAAACGTC | 0.0359
GTGAGCTA | -0.209
CCCACTAG | -0.0671
AATCAACT | 0.128

Sequence | PBM 8-mer E-score
CAAATAAC | 0.341
CGCCATAC | -0.154
CCGAAGTA | 0.12
AGTTTTAT | 0.351
TAGAAGAA | 0.0365
AACCATTC | -0.0413
CAATGCCA | -0.0747
CGTTCTTA | 0.118
ACATCGCC | -0.217
TCCTGCAA | -0.141
CGTACGCA | -0.072
GGGGCGAC | -0.182
TGGCATAA | 0.135
CGACATAG | -0.0874
AAAGGACG | -0.247
AAAAATTG | 0.117
TGACTGCA | -0.107
CTGGAGAC | -0.185
AGGCGATA | -0.135
GTGTTACA | 0.244
GACGACAA | -0.0565
AAACGCTA | 0.077
CGTCAGAG | -0.26
GCCGTAGC | -0.303
GCACCACC | -0.184

Sequence | PBM 8-mer E-score
CCTACAAA | -0.165
CACTGGCG | -0.195
GGGCCTAC | -0.286
ATGTCCCG | -0.0512
CAATACAC | 0.185
ACTGTGCT | -0.00361
ACCCGAGA | -0.109
AGACCCGG | -0.157
CGGTGAGA | -0.14
GCCTAACA | -0.00559
CAATGCAA | 0.047
GTACCTTA | 0.119
TATCAATA | 0.365
AACCACAC | 0.0572
ATTGGAAA | 0.0872
AGTAAAAT | 0.308
CGGAGACC | -0.231
CTGACAGA | -0.11
CTATTAAG | 0.17
AAGCATCC | -0.0969
CGGGCTCA | -0.287
AGCCGCCA | -0.149
TCACGGAA | -0.0865
GCCACTAA | 0.15
ACTCGGCA | -0.149

Sequence | PBM 8-mer E-score
GCTCGTAA | 0.00131
AAGTGTCA | 0.0929
GCACACAA | 0.0892
ACAAAAGC | 0.146
GTGCTCCA | -0.145
CAAATGTG | 0.0388
AGGGAGAT | -0.257
AAGTGAAC | -0.0729
AACGCTGC | 0.0312
ATGATACC | -0.0482
ACCTCTAT | -0.102
GTTTAATA | 0.407
ACTGACTA | 0.0879
AAGCCGAA | -0.0153
AAAACCTA | 0.136
CCGTACCC | -0.209
CGCCGCCA | -0.194
AAGTAAAA | 0.288
TCCGGACA | -0.116
TACCTATA | 0.246
AATCCAAG | -0.0856
TAAAGAGA | 0.0828
